Experimental data published in the supplement of paper PMC3334620.
Whole data set: some 33,000 sequences, median “E-score (-0.5 to 0.5)” near -0.013, cut for the highest 2% near 0.3. This is one part of the list.

The sequences below were run against T1, Msn1 (UniProt P22148) (assay: PBM E-score (8-mer binding enrichment) (E-score (-0.5 to 0.5)); higher = stronger / more preferred TF binding; most listed sequences are background and not binding sites). Conditions: protein concentration: 200 nM; construct: GST-full length.
T1 sequence: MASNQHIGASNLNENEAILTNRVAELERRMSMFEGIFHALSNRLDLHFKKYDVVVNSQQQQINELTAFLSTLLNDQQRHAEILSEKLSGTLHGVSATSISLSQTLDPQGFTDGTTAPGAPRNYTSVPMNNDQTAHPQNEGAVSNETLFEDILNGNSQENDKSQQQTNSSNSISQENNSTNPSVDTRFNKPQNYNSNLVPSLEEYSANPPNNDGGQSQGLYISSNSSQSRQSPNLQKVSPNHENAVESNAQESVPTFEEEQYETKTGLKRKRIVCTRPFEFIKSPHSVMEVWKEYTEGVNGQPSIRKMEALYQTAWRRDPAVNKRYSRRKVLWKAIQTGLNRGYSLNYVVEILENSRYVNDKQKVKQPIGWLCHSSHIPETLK
Procedure, shortened: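 E-scores (a modified Wilcoxon-Mann-Whitney statistic) were assigned by the Universal PBM Analysis Suite to every ungapped eight-base word pooled with its reverse complement. The input came from universal all-10-mer Agilent arrays made double-stranded by primer extension and probed with GST-tagged yeast transcription factors at about 100-200 nM. Fluorescent anti-GST detected bound protein, and masliner normalised the scans.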

| Sequence | PBM E-score |
| --- | --- |
| CCATGGCG | 0.059 |
| AACTCAGA | 0.0578 |
| AAAATGCA | -0.0363 |
| CCTTTCCG | 0.0597 |
| CTTCACGC | 0.157 |
| CTCCCGAA | -0.206 |
| ATCCACTA | 0.0543 |
| CACAGTGC | -0.156 |
| CAGCTAAA | -0.123 |
| CAACATGA | 0.0232 |
| AGCAGTAT | 0.0528 |
| AACGTATT | -0.0825 |
| GGGGAGAC | -0.132 |
| GCATATCA | 0.0793 |
| GCCTTTCC | -0.0629 |
| GGAAACCC | -0.0913 |
| GCGTTAAA | -0.0148 |
| AAACCAAT | 0.126 |
| GCAGACTA | -0.039 |
| GGGATGGA | -0.159 |
| CCGAAAGC | 0.0281 |
| TAACGTGA | -0.034 |
| CATGTTCG | -0.00769 |
| CGTCCCTC | -0.0571 |
| CCGTTTCC | -0.0828 |

| Sequence | PBM E-score |
| --- | --- |
| AAGTGGCT | -0.104 |
| TCAGAGGA | -0.12 |
| CGCTGCAG | -0.119 |
| AAGTAGTC | 0.135 |
| CAAGGCCG | 0.0133 |
| GATGTTAC | 0.17 |
| GGCATAGA | 0.055 |
| AGCCACTC | -0.15 |
| CGAAAAAA | 0.138 |
| ACGCTGCG | -0.258 |
| CTTACCTC | -0.0517 |
| ATCCCAGC | -0.0949 |
| AGTCAAGA | 0.0713 |
| AAGGTGAA | 0.00642 |
| GTAGAAAC | 0.0458 |
| AAAATTTT | 0.198 |
| ATTTGCTA | 0.215 |
| AACCGTAG | -0.184 |
| AAAGTTCG | 0.187 |
| CGAACCAA | 0.0114 |
| GGACTTAA | 0.219 |
| CCCGCGAG | -0.0558 |
| AAAATCAC | 0.0304 |
| CAGTTCCA | -0.104 |
| CACACTGC | -0.103 |

| Sequence | PBM E-score |
| --- | --- |
| AGTCCTAT | 0.201 |
| CGCTCAAG | 0.00687 |
| TCCCAACA | 0.0539 |
| CCTCAACA | 0.076 |
| ACCCAGTC | -0.129 |
| CGAAGCAA | 0.182 |
| GTATTTTA | -0.00365 |
| AGGTGTGG | -0.144 |
| ACCTGTGA | 0.0752 |
| GTCTAGGA | 0.0657 |
| AGATGGCG | -0.00752 |
| ATCATTCG | 0.104 |
| TACCAGCA | 0.00785 |
| CACCATAA | -0.0553 |
| GGGAGCAC | -0.276 |
| ATCGCGAG | 0.0782 |
| AGTAGCAG | -0.0373 |
| GAAGTTAC | 0.0622 |
| CCAATACA | 0.0713 |
| GATTGTAC | 0.0546 |
| ATAAGTCA | 0.239 |
| TCTGAGAA | 0.169 |
| ACTTATAA | 0.333 |
| CAAGCCCG | -0.0308 |
| ATAAAGAG | -0.072 |

| Sequence | PBM E-score |
| --- | --- |
| AAACGTGT | 0.0538 |
| GACGGCCA | -0.0578 |
| GCGCCGTA | 0.188 |
| CACTGATG | -0.091 |
| TCATGAGA | 0.0439 |
| CAAAGGAG | -0.184 |
| CATGACGA | 0.033 |
| ACGGTACA | 0.172 |
| ATCCCGTC | -0.0856 |
| CAGTCCTC | -0.254 |
| AAGGGGGT | -0.315 |
| AATGGTCG | -0.0526 |
| CAAGCCGC | -0.155 |
| CCCTGCCC | -0.252 |
| ATTGCATG | 0.189 |
| GCTTTGTA | 0.25 |
| ACTTTGAG | -0.06 |
| AGTAAATG | 0.168 |
| AACGATCC | -0.165 |
| CCTTTTAA | 0.0291 |
| CTGCGATA | 0.0274 |
| AAGAGCCA | 0.137 |
| GACACATC | 0.23 |
| GACACTCC | 0.146 |
| CCAGGAGC | -0.237 |

| Sequence | PBM E-score |
| --- | --- |
| ATCCAATG | -0.191 |
| CTCATGGA | -0.0407 |
| GGGATGTA | -0.0101 |
| AAGAGACC | -0.0422 |
| GGGGAAAC | -0.0205 |
| GTATTGAC | -0.0493 |
| ACGACCGA | 0.0849 |
| TAGAGGCA | -0.144 |
| GTTTCTCA | 0.0621 |
| AACTGGTG | -0.265 |
| CACCATCA | -0.185 |
| AAGCTGGA | -0.118 |
| CAATCGAA | 0.041 |
| CAAGCCCA | -0.195 |
| GATATAGC | -0.131 |
| TAAAGGGA | 0.128 |
| AGATACGG | 0.0733 |
| AAGTCCGA | 0.149 |
| ATAGCGAG | -0.0338 |
| GACAGGGC | -0.0682 |
| GACTGGGA | -0.0971 |
| ACTCAGCA | -0.0495 |
| AGGTCAAA | 0.0719 |
| CTCGTCGC | -0.123 |
| CTCCCAAC | -0.225 |

| Sequence | PBM E-score |
| --- | --- |
| AAGAGTGA | 0.00243 |
| TCTCCAGA | -0.0895 |
| CTACCAAA | -0.0795 |
| AGAACACT | -0.131 |
| GCGTCATA | 0.171 |
| ACCTGTGC | -0.069 |
| GGTTGCTA | -0.14 |
| CGAGTGAG | 0.102 |
| GTCTTCGA | 0.0438 |
| AGAAAGTC | 0.222 |
| ATAAATCG | 0.112 |
| GAGTCGAC | 0.0439 |
| ACATAGTC | 0.184 |
| AACCCGCA | -0.0665 |
| AGGCTTGG | -0.0597 |
| CATACAAG | -0.0747 |
| GGTCAGAA | -0.0609 |
| CCGGAAAC | 0.011 |
| GGAATTAA | 0.164 |
| CCATGAGC | -0.157 |
| ATGTGTTG | 0.0856 |
| CTCCGAAC | 0.201 |
| ACTCTCAG | -0.0391 |
| GACAAGCC | 0.318 |
| CGTCGACA | 0.00562 |

| Sequence | PBM E-score |
| --- | --- |
| ACCCTGCT | -0.311 |
| ACGTATGG | 0.0875 |
| ACTTCAAG | 0.121 |
| ACTGTCTA | 0.022 |
| AGGGCAAG | -0.0963 |
| ATACGATG | 0.0261 |
| GCTTCGCA | -0.179 |
| AACAGGGG | -0.364 |
| GAGCGAGC | -0.0136 |
| ATGAACAC | 0.112 |
| ACGAAAAT | 0.177 |
| GCAAAGAA | -0.0403 |
| AAAAATTT | 0.219 |
| CACAGCCC | -0.18 |
| GTGAAGGA | 0.0132 |
| CAAACCGA | 0.042 |
| ACAATAGG | 0.0391 |
| ACCAGAGG | -0.249 |
| AATGCATA | 0.00118 |
| AATAAAGA | 0.179 |
| AGCGGTAA | -0.0367 |
| AGTTAGCA | 0.0245 |
